Data as given in the supplement of paper PMC7125110.
± gives the standard error. Variants at the floor of the assay are shown more often than the library holds them.

B1: glmS ribozyme (parent)
chain: AUAAAAGCGCCAGAACUACAGAAAUGUAGUUGACGAGGAGGAGGUUUAUCGAAUUUUCGGCGGAUGCCUCCAAA

Legend:
Details in all cases: with glucosamine-6-phosphate
glucosamine-6-phosphate [1] = variants of: B1; experiment: self-cleavage kobs at 40 uM GlcN6P; higher = faster cleavage; RNA array
Procedure, shortened: (§1)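 Barcoded ribozyme variants were transcribed in situ on sequenced MiSeq chips by E. coli RNA polymerase. At 37 °C, a hybridised Cy3 probe tracked them while glucosamine-6-phosphate (40 μM to 10 mM) in HEPES/KCl/Mg(OAc)2 buffer flowed in and tiles were imaged over ~14 h. Per-tile medians of signals normalised to baseline and to non-cleaving reference variants were fit to one- or two-exponential decays, giving kobs. kcat and KM came from weighted Michaelis–Menten fits across concentrations.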

glucosamine-6-phosphate [2] = variants of: B1; experiment: self-cleavage kobs at 640 uM GlcN6P; higher = faster cleavage; RNA array
Procedure, shortened: as §1

glucosamine-6-phosphate [3] = variants of: B1; experiment: self-cleavage kobs at 160 uM GlcN6P; higher = faster cleavage; RNA array
Procedure, shortened: as §1

glucosamine-6-phosphate [4] = variants of: B1; experiment: self-cleavage kobs at 10000 uM GlcN6P; higher = faster cleavage; RNA array
Procedure, shortened: as §1

glucosamine-6-phosphate [5] = variants of: B1; experiment: self-cleavage kobs at 2500 uM GlcN6P; higher = faster cleavage; RNA array
Procedure, shortened: as §1

Variant	self-cleavage kobs at 40 uM GlcN6P (glucosamine-6-phosphate [1]) [s⁻¹]	self-cleavage kobs at 640 uM GlcN6P (glucosamine-6-phosphate [2]) [s⁻¹]	self-cleavage kobs at 160 uM GlcN6P (glucosamine-6-phosphate [3]) [s⁻¹]	self-cleavage kobs at 10000 uM GlcN6P (glucosamine-6-phosphate [4]) [s⁻¹]	self-cleavage kobs at 2500 uM GlcN6P (glucosamine-6-phosphate [5]) [s⁻¹]
U49C C71A	< 1e-05	–	–	–	–
A48U A52G U55A A64G	< 1e-05	–	–	–	–
A53G C70U	0.00158 ± 0.00015	0.0139 ± 0.0036	0.00129 ± 0.00027	0.0616 ± 0.014	–
A48U G60U C70A	< 1e-05	–	–	–	–
U54A C58U	< 1e-05	–	–	–	–
U55G C61A G66C C70A	0.000162 ± 4.4e-05	0.000153 ± 3.1e-05	0.000108 ± 2.1e-05	–	8.3e-05 ± 1.7e-05
A48C U69G C70U	< 1e-05	–	–	< 1e-05	< 1e-05
A48G U49A G51A	< 1e-05	–	–	–	–
C50U G60U	< 1e-05	< 1e-05	< 1e-05	< 1e-05	< 1e-05
A48G G60U	< 1e-05	< 1e-05	< 1e-05	< 1e-05	< 1e-05
A48G G60A	< 1e-05	< 1e-05	< 1e-05	< 1e-05	< 1e-05
U55C C61U C68U	< 1e-05	–	–	< 1e-05	–
A52C U57A G59A	< 1e-05	–	–	–	–
U55C G60U C68U	< 1e-05	–	–	–	< 1e-05
A48U G62U	< 1e-05	–	–	–	–
A48U G62C	< 1e-05	< 1e-05	< 1e-05	< 1e-05	< 1e-05
A52U A64C	< 1e-05	< 1e-05	< 1e-05	< 1e-05	< 1e-05
A52U A64U	< 1e-05	< 1e-05	< 1e-05	< 1e-05	–
U47G C61U	< 1e-05	–	–	–	–
U55A U69A	7.99e-05 ± 1.9e-05	9.88e-05 ± 1.9e-05	9.45e-05 ± 2.4e-05	0.000129 ± 2.7e-05	7.93e-05 ± 1.3e-05
A53G G59U U65C	< 1e-05	–	–	–	–
U49A C58U U65C	< 1e-05	–	–	< 1e-05	< 1e-05
A53G U69C	0.000897 ± 0.00014	0.00235 ± 0.00048	0.000469 ± 8.4e-05	0.00674 ± 0.0018	0.002 ± 0.00044
U47G C50G G59A	< 1e-05	–	–	–	–

Variant	self-cleavage kobs at 40 uM GlcN6P (glucosamine-6-phosphate [1]) [s⁻¹]	self-cleavage kobs at 640 uM GlcN6P (glucosamine-6-phosphate [2]) [s⁻¹]	self-cleavage kobs at 160 uM GlcN6P (glucosamine-6-phosphate [3]) [s⁻¹]	self-cleavage kobs at 10000 uM GlcN6P (glucosamine-6-phosphate [4]) [s⁻¹]	self-cleavage kobs at 2500 uM GlcN6P (glucosamine-6-phosphate [5]) [s⁻¹]
A48G C61U G66U U69G	< 1e-05	–	–	–	–
A53U G60A U65G	< 1e-05	–	–	< 1e-05	–
A48G G66A	< 1e-05	–	–	–	–
C50U C61U C68A	< 1e-05	–	–	–	–
A48G U57C	< 1e-05	–	< 1e-05	–	–
C50U A52U C71A	< 1e-05	–	–	–	–
A52C U55A U56C	< 1e-05	< 1e-05	–	< 1e-05	< 1e-05
U55G C58A	< 1e-05	–	–	–	–
A52C C67A	< 1e-05	–	–	–	–
C50G U57A	3.58e-05 ± 1.6e-05	5.84e-05 ± 1.6e-05	8.31e-05 ± 1.4e-05	–	6.05e-05 ± 2.7e-05
U49A G63A	< 1e-05	< 1e-05	–	< 1e-05	< 1e-05
U55A C68G	3.36e-05 ± 1e-05	8.75e-05 ± 1.2e-05	6.64e-05 ± 1e-05	–	–
A52U U65A U69C	< 1e-05	–	–	–	–
A52C	< 1e-05	1.03e-05 ± 3.3e-06	< 1e-05	2.56e-05 ± 1.3e-06	2.17e-05 ± 1.5e-06
A52G	3.36e-05 ± 1e-06	0.000385 ± 9.1e-06	0.000104 ± 3.3e-06	0.0022 ± 6.2e-05	0.00127 ± 5.6e-05
A52G G63A	< 1e-05	–	< 1e-05	–	< 1e-05
C50A C68G	2.54e-05 ± 1e-05	–	–	–	–
U54C G60U C67U	< 1e-05	–	–	< 1e-05	–
A52U G60A	< 1e-05	< 1e-05	< 1e-05	< 1e-05	–
A48G U54A C61U	< 1e-05	–	–	–	–
G51U U54C	< 1e-05	< 1e-05	< 1e-05	< 1e-05	–
C50G C70A C71G	7.15e-05 ± 1.7e-05	–	–	–	–
G51C G63A	< 1e-05	–	< 1e-05	–	< 1e-05
